{"source": "patent US20190328784A1", "about": "“CHIMERIC ANTIGEN RECEPTORS (CARS) SPECIFIC FOR MUC1 AND METHODS FOR THEIR USE” (Poseida Therapeutics, Inc., priority 2016, published 2019)", "molecules": {"B1": {"name": "M1A-LH: MUC1 scFv CAR; single chain antibody SEQ ID NO: 31 (protein)", "scFv": "DILLTQSPAILSVSPGERVSFS[left out - about 80 residues]FGAGTKLELKGGGGSGGGGSGGGGSQVQLQQSGAELVRPGSSVKISCKTSGYAFSNFWMNWVKQRPGQGLEWIGQIYPGDGDTNYNGKFKGKATLTADKSSSTAYMQLSSLTSEASAVYFCARSYYRSAWFAYWGQGTLVSVSA", "modifications": "left off: a dimerising Fc or GST"}}, "key": {"[1]": {"test_system": "MUC1 expressed on activated T cells", "test": "MUC1-scFv CAR function/epitope assay (degranulation, CD107a+ cells)", "type": "cell-based, human", "protocol": "(§1) The results of a functional assay are provided in the graph wherein MUC1-C scFv-CAR function was measured by the extent of degranulation of the cells in each condition contacted with the MUC1-scFv along the X-axis. Degranulation was measured as the percentage of total cells that were CD107a-positive (CD107a+). The chart summarizes the relative activity of each MUC1-C scFv-CAR during the functional assay.\nAs an initial study, MUC1 expression was assessed in different cell types (see FIG. 13). Cells included in this study: K562 cells (immortalized human chronic myelogenous leukemia cells), Raji cells (human hematopoietic cell line used as a model of cancer), Raji cells modified to express MUC1-C, activated T cells and RPMI8226 cells (human peripheral blood B cell plasmacytoma/myeloma cell line). MUC1 expression in each of these cells was assessed by staining with an anti-MUC1-N antibody."}, "full length MUC1": {"biological_target": "T1, full length MUC1 (Homo sapiens, UniProt P15941)", "T1 construct": "expressed in transfected cells; host or cells: K562, Raji and RPMI8226 cells", "T1 sequence (P15941 24-1255)": "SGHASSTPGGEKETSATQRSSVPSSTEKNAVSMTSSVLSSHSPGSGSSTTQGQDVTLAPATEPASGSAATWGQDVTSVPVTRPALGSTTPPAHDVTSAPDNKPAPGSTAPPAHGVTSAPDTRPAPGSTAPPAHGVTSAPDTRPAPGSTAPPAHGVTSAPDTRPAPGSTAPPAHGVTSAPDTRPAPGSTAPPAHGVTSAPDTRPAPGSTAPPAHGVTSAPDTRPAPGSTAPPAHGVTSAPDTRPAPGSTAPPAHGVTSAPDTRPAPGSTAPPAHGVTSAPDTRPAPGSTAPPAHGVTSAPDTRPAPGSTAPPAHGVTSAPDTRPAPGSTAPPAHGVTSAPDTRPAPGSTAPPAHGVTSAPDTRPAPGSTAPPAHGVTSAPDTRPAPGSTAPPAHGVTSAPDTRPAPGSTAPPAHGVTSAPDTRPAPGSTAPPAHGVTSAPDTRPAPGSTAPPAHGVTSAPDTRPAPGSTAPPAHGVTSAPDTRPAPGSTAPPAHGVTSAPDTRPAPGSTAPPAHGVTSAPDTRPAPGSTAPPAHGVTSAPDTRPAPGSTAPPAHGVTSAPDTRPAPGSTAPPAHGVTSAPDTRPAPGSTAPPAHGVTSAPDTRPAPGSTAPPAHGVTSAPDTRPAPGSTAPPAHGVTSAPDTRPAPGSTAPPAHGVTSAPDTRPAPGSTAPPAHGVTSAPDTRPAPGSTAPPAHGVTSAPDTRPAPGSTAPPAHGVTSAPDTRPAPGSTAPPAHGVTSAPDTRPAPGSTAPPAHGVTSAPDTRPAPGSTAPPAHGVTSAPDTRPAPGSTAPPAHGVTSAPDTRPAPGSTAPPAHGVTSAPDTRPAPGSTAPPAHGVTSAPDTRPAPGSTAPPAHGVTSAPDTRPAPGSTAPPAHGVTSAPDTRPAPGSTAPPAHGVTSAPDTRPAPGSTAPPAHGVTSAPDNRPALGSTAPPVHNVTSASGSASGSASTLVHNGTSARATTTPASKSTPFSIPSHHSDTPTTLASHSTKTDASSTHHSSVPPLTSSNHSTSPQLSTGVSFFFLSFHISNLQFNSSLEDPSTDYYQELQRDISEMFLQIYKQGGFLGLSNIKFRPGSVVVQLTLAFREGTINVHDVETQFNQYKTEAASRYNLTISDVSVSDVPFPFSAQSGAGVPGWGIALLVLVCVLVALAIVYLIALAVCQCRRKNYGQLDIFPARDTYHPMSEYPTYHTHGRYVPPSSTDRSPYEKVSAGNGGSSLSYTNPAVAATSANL", "test": "MUC1-scFv CAR function/epitope assay (degranulation, CD107a+ cells)", "type": "cell-based", "conditions": "cells expressing full-length MUC1", "protocol": "FIG. 14 is a graph depicting a MUC1-scFv CAR function assay. […] MUC1-scFv function is measured by the extent of degranulation of the cells in each condition contacted with the MUC1-scFv along the X-axis. Degranulation was measured as the percentage of total cells that were CD107a-positive (CD107a+).\nas §1\nThe function of each of the MUC1-scFv CARs described in this example was assayed in K562 cells, Raji cells and RPMI8226 cells (“8226”) cells in either unmodified conditions or following transfection with MUC1 constructs (either full-length or MUC1-C) to generate modified K562 cells, modified Raji cells and modified 8226 cells. Function of each of the MUC1-scFv CARs was measured by the CAR's ability to degranulate each cell type. Degranulation was measured by the percent of total cells that express […] (percentage of […] cells).\nThe F1C-HL, M1A-LH and K2B-HL MUC1-scFv CARs were further tested to determine epitope binding."}}, "note": "Entries after “also recorded” stand apart in the source; their conditions may differ.", "data": [{"molecule": "B1", "values": [{"measurement": "CAR reactivity (degranulation)", "setting": "[1]", "result": "to a lesser extent to that expressed on T cells"}, {"measurement": "CAR reactivity / binding (degranulation)", "setting": "full length MUC1", "result": "reacts against full length MUC1; also recorded: specifically binds"}]}]}
